# Assay results as given in the supplement of paper PMC3334620.
# The full ranking holds about 33,000 sequences; the median of “E-score (-0.5 to 0.5)” is about -0.056, and the highest 2% start at about 0.38. The list shows a part of the results.
# Molecular target: Stb4 (UniProt P50104)
# Experiment: PBM E-score (8-mer binding enrichment) (E-score (-0.5 to 0.5)); higher = stronger / more preferred TF binding; most listed sequences are background and not binding sites
# Settings: protein concentration: 200 nM; construct: GST-DNA-binding domain
# Outline: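 Universal all-10-mer Agilent arrays, double-stranded by primer extension on fresh or once-stripped slides, were probed with about 100-200 nM GST-tagged yeast transcription factors made by PURExpress. Fluorescent anti-GST detected bound protein, and masliner normalised the scans. E-scores from the Universal PBM Analysis Suite were given to each ungapped eight-base word pooled with its reverse complement.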
row,Sequence,PBM E-score
1,CAGCGGTC,-0.186
2,GATAAAGC,0.0432
3,AAGCATGT,-0.0991
4,GTAGTCGA,-0.038
5,AGTACATG,-0.127
6,ACCTGACA,-0.17
7,GGGTGTAC,0.0614
8,ATTACTGG,-0.194
9,ACTATGTG,-0.0584
10,CTGGTGTC,-0.068
11,AAGGAGCA,-0.118
12,CACAATCC,0.044
13,CTCGACAG,-0.215
14,ACTCACGA,-0.256
15,ATTTTTAG,-0.0317
16,CCAAACTA,-0.113
17,GAGCTGCC,0.0988
18,CGGAAAGA,0.407
19,AACGAACT,-0.212
20,TCGTCGCA,-0.133
21,CCATAACC,-0.0552
22,GACACTGC,-0.136
23,AAATGTCG,0.0675
24,AGCCAAAT,0.00327
25,CCGTCTGC,0.0943

row,Sequence,PBM E-score
1,ACAACGAG,-0.233
2,ATGCGGTA,0.0724
3,TATTACAA,-0.0959
4,CTAGGGGA,-0.203
5,CAGTCACA,-0.242
6,AATCTCAT,-0.139
7,CGAATTCA,0.195
8,CTGGATCA,-0.141
9,AAATGGCG,-0.0299
10,CCTACGTA,-0.169
11,CGGCAATA,0.34
12,TAGAACTA,-0.154
13,AGCCAGGC,-0.28
14,ATGAGGCG,-0.0172
15,ATCGGTTG,0.181
16,ACGATAGT,-0.262
17,CTGGGGGC,-0.214
18,AGCAATGA,-0.207
19,GGAGTTCA,0.0991
20,TGATCACA,-0.108
21,AGCAACGG,0.177
22,AATGAGGG,-0.121
23,GACAAAGC,0.00913
24,CTTGCACA,-0.0761
25,CCCACGTC,-0.0653

row,Sequence,PBM E-score
1,CGCGGCAG,0.179
2,ACTGTTTC,-0.0283
3,ACCTATCT,-0.274
4,AGCCCGAC,0.0817
5,GATCGAGC,0.0801
6,GACCCCTA,-0.347
7,CAGTTCCG,0.364
8,AAATTTGG,-0.172
9,ATAAGCGC,-0.217
10,ATGAGTCC,0.0307
11,AGAGCCAT,-0.184
12,GCCAGTCC,0.0695
13,CTGCACTC,0.0824
14,AGACCCCG,0.215
15,AACCTATA,-0.0322
16,AGCTGGTC,-0.212
17,CGTCTAAG,-0.0829
18,CCAAGACG,-0.09
19,ACTGTCCA,-0.248
20,CTTGTCGA,-0.294
21,ACCTGGAT,-0.0324
22,TATCGATA,-0.0571
23,AGCCTAAG,-0.206
24,ACGCGTAT,-0.0638
25,GGAGTAGA,-0.0139

row,Sequence,PBM E-score
1,ATCGACAG,-0.0876
2,GTTGTCTA,-0.0662
3,CACACAGA,-0.106
4,CCTCGACC,-0.2
5,CTCAGCGA,-0.00367
6,AGCAAGCC,-0.0146
7,CCGGATGA,0.366
8,AAGCGTGA,-0.0651
9,ATGAGGTC,-0.137
10,AGTGGTCA,0.0336
11,CAAACGAA,-0.0891
12,CCACCCGG,0.273
13,AACAAACT,-0.00836
14,ACTCAAAG,-0.0542
15,CGTCGAAC,-0.255
16,AGACAAAC,-0.219
17,CTAGTGGC,-0.312
18,AACAGGTA,-0.0983
19,AATAGGCC,-0.0701
20,ACATGCAG,-0.26
21,CTACCGAG,0.381
22,CTTTAATA,0.0204
23,TCCTGTCA,-0.0462
24,CTAGGAAG,-0.223
25,AAGTTCGC,-0.187

row,Sequence,PBM E-score
1,ACTGCCCC,-0.0742
2,GGAATGAA,0.165
3,AAGTACAT,-0.0251
4,TCAGTAGA,-0.052
5,CTTTAGAC,-0.294
6,GTCTATTA,-0.00563
7,CACCCGTG,0.186
8,CGTGGTTC,0.0512
9,AATTCCCC,0.168
10,GGTGCGAC,-0.0806
11,CAATCTAC,-0.0205
12,CTGAGTAC,-0.177
13,GCTCGGCA,0.443
14,CGTCTAAA,-0.0166
15,CCGGCATA,0.263
16,AGGCCTAG,-0.288
17,AGTTCAAA,0.162
18,AACCCTAT,-0.172
19,CAGAATAA,-0.0851
20,ATAAATAG,-0.0646
21,CTGCAGAC,-0.237
22,GCATTATA,-0.134
23,GCTCAATA,-0.0858
24,CCAGATAC,-0.122
25,GTATGGAC,0.0985

row,Sequence,PBM E-score
1,GCGCACGA,-0.0528
2,GGATATCA,0.209
3,AAGGACCC,0.0403
4,AAGACCCT,-0.17
5,ACGAGATA,-0.184
6,GAAAATCC,0.187
7,AACAATGC,-0.136
8,TCTCCACA,-0.302
9,CACTGCGG,0.0268
10,CAGAGGCC,-0.204
11,CGAACTCG,0.268
12,AGGCGATG,-0.0991
13,GAGAGGAC,-0.00531
14,CCTCAGCA,-0.123
15,ACTCGCAG,-0.119
16,TTATAAAA,0.0694
17,GAACTGTC,-0.0422
18,AACTCCCC,-0.00768
19,TCTACTCA,-0.12
20,CCTATTCA,-0.0251
21,CACTTGGC,-0.0731
22,CCGTAATC,0.0976
23,CCGTCGTA,-0.0259
24,CCTTAGAG,-0.234
25,CAAAACTA,-0.0927

row,Sequence,PBM E-score
1,AATCCTCA,-0.264
2,AAGCTGCC,0.0027
3,GGATCGAA,0.214
4,CAACCGTA,-0.0391
5,AAATAGCG,-0.102
6,CGCTATCA,-0.0118
7,GACGCACC,-0.106
8,AACTCCCA,-0.104
9,ACACCTTG,-0.135
10,AGGCCTAA,-0.108
11,ATAATATG,-0.0706
12,CCCCTGTC,-0.252
13,CCGTTTTC,0.19
14,ACCTTGTA,-0.053
15,GTCGGTGA,0.0937
16,GATCCCTA,-0.0232
17,CACGAAAA,-0.0798
18,CTCCGCTA,-0.0461
19,AAGTCCGC,0.0523
20,CGCCTGCC,-0.0366
21,GCTACCGA,0.332
22,AGGTCCGG,0.163
